# According to PubChem BioAssay AID1671188 (National Center for Advancing Translational Sciences (NCATS), 2021):
# Screen size: about 100,000 compounds; about 250 (0.25%) were called active. Inconclusive means that the source gave no clear call. Such entries were picked first, then a sample of the others. Calls follow the shape of the dose curve; as a rule, active = well fitted inhibition curve with a large enough effect; inconclusive = small, poorly fitted or top-dose-only effect; inactive = flat fitted curve, though single readings scatter. No potency is given beside an inconclusive call; the fits are too rough.
# Target: Alanine aminotransferase 2 (Homo sapiens) (UniProt Q8TD30)
# Assay: Primary qHTS assay for inhibitors of Glutamate pyruvate transaminase 2 (GPT2); also: nearly all actives have a fitted effect of over 60% in size
# Details: Recombinant GPT2, coupled pyruvate oxidase/HRP Amplex Red fluorescence; activity change, negative = inhibition: at 57.7 µM (top of the series) unless noted; series mostly up to 57.7 µM
# How it was run: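 GPT2 10ng/uL, a-KG 250uM, L-Ala 2mM, HEPES pH7.5 + 0.0001% Tween; 30 min RT. Then Amplex mix (PO/HRP/ThPP), 30 min RT dark, fluorescence. AOA 50uM used as positive control.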
# % is scaled to controls: 0 for no effect and ±100 for the full control effect; potency is read from the fitted curve at half-maximal effect; tags tell the direction and shape of the fitted curve.
# UniProt Q8TD30, sequence (Q8TD30 whole entry, looked up): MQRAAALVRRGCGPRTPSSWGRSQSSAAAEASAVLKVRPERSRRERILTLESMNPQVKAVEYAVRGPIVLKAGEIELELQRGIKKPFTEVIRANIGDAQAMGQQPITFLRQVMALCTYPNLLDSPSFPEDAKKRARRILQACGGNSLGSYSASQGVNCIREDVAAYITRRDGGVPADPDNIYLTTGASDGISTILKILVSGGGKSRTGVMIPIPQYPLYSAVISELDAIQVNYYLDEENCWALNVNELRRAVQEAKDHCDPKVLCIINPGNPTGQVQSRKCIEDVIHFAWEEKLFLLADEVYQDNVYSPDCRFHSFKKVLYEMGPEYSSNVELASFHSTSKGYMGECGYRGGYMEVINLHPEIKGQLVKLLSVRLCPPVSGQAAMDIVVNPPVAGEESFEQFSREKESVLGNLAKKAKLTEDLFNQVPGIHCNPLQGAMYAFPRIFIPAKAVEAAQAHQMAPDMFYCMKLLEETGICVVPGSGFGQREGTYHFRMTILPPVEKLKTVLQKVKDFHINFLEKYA
Compound,"activity change, negative = inhibition",Potency,outcome
COc1ccc(C(=O)NC[C@H]2O[C@H](Cc3cc(-c4ccccc4)on3)CC[C@@H]2O)cc1,inactive: 0.178% [at 88.5 µM],–,–
CC1(C)CCCC2(C)C=C(C(=O)O)C(O)CC12 (centres undefined),–,"inconclusive [inhibitor, partial curve, poor fit]",–
CCN1C(=O)CCC2(C(=O)Nc3ccc(OC)cc3OC)CCCC=C12 (centres undefined),–,"inconclusive [inhibitor, single point]",–
COc1ccc(C(=O)N2CCCOCCNC(=O)CC2)c(OC)n1,–,"inconclusive [inhibitor, single point]",–
CC#C[C@@H](CC(=O)O)c1ccc(OCc2ccc(CN3CCC4(C=Cc5ccccc54)CC3)s2)cc1,–,"inconclusive [inhibitor, single point]",–
CCCCc1cc(C[C@@H]2C[C@H](NC(=O)NC(C)C)C2(C)C)no1,–,"inconclusive [inhibitor, full curve, poor fit]",–
O=[S+]1([O-])NC2(CCN(Cc3ccc(F)cc3)CC2)CNc2ccccc21,–,"inconclusive [inhibitor, partial curve, poor fit]",–
CC(=O)N1CCCN(C(=O)CC(c2cccc(O)c2)c2cccc(Cl)c2)CC1 (centres undefined),–,"inconclusive [inhibitor, single point]",–
CCc1oc2ccccc2c1C(=O)c1cc(I)c(O)c(I)c1,inactive: -0.464%,–,–
CC(C)c1nc2c(c(-c3ccc(O)cc3)n1)CCN(C(=O)c1ccccc1F)CC2,–,–,inactive
CN(C)CCC(=O)N1Cc2ccccc2CC2(CCCN(CC3CCNCC3)C2)C1 (centres undefined),–,"inconclusive [inhibitor, single point]",–
O=C(O)c1ccc(CN2CCC[C@H]2c2nc(-c3ccc(-n4ccnc4)nc3)no2)cc1,–,"inconclusive [inhibitor, single point]",–
COCC1CN(C)CC12CCN(C(=O)c1ccc(C)cc1C)CC2 (centres undefined),–,"inconclusive [inhibitor, full curve, poor fit]",–
CC(C)(C)NC(=O)[C@H]1CN(Cc2cccnc2)CCN1C[C@@H](O)C[C@@H](Cc1ccccc1)C(=O)N[C@H]1c2ccccc2C[C@H]1O,–,"inconclusive [inhibitor, single point]",–
O=C(O)CCn1ncc2cc(OCc3ccc(-c4cccc(CO)c4)cc3)ccc21,–,"inconclusive [inhibitor, full curve]",–
COc1cccc(CN2CCc3c(cc(C(=O)NCCN4CCCCC4)n3C)C2)c1,–,"inconclusive [inhibitor, single point]",–
CCCN1CCCC2(Cc3ccccc3CN(C(=O)Cc3ccccc3)C2)C1 (centres undefined),–,–,inactive
COc1ccc(C(=O)N2CCC3(CC2)NC(=O)N(c2cccc(F)c2)N3)c(OC)c1,–,"inconclusive [inhibitor, single point]",–
Cc1ccc(OC2(C(=O)N(C)Cc3n[nH]c4c3CCCC4)CCNCC2)cc1,inactive: 0.744%,–,–
COc1ccc(CCc2nc3nccc(-c4ccc5c(c4)OCCCO5)n3n2)cc1OC,inactive: -1.24%,–,–

Compound,"activity change, negative = inhibition",Potency,outcome
CCOc1ccc(C(=O)N2CCCN(c3cc(-c4ccc(F)cc4)[nH]n3)CC2)cc1,–,"inconclusive [inhibitor, partial curve]",–
Cc1cn([C@@H]2C[C@@H](O)[C@H](CO)O2)c(=O)[nH]c1=O,–,"inconclusive [inhibitor, full curve, poor fit]",–
Cc1cccc(CNC(=O)c2c(C)noc2-c2ccc(C(C)(C)C)cc2)c1,–,"inconclusive [inhibitor, single point]",–
O=C(Nc1ccc(N2CCOCC2)cc1)[C@H]1CN(Cc2ccccc2)C[C@H]1C(=O)O,–,"inconclusive [inhibitor, single point]",–
CC1=C[C@@H](CNS(C)(=O)=O)[C@H](C(C)C)C[C@H]1Cc1nc2ccccc2n1C,–,"inconclusive [inhibitor, partial curve]",–
C=C[C@H]1[C@H](O[C@@H]2O[C@H](CO)[C@@H](O)[C@H](O)[C@H]2O)OC=C(C(=O)OC)[C@H]1CCO,–,"inconclusive [inhibitor, partial curve, poor fit]",–
COc1cc2c(cc1NS(=O)(=O)c1ccc(Br)cc1C)n(C)c(=O)n2C,–,"inconclusive [inhibitor, single point]",–
O=C(NCc1ccc(Cl)cc1)c1ccc2nnc(-c3cccc(C(F)(F)F)c3)n2c1,–,–,inactive
CN(C)c1cc(=O)c2ccnc(Nc3ccccn3)c2o1,–,"inconclusive [inhibitor, full curve, poor fit]",–
Cc1cc(C)c(CNC(=O)c2cc(-c3ccccc3O)cc3c2OCCN3C(C)C)c(=O)[nH]1,–,"inconclusive [inhibitor, single point]",–
O=C(CCc1ccccc1)N1CCCN(c2cc(-c3ccc(Cl)cc3)[nH]n2)CC1,–,"inconclusive [inhibitor, single point]",–
CCC(CC)CC(=O)N1CCCC(Nc2ccc3c(c2)OCCO3)C1 (centres undefined),–,"inconclusive [inhibitor, single point]",–
O=C(Cn1nc2c(cc1=O)CCCCC2)NCCn1c(=O)c(=O)[nH]c2ccccc21,–,"inconclusive [inhibitor, single point]",–
COc1cccc([S+](=O)([O-])N2CCC(N3CCCOC3=O)CC2)c1,inactive: -1.41%,–,–
CC1(C(=O)NC2CC2)CCCc2cnc(Nc3cccnc3)nc21 (centres undefined),–,"inconclusive [inhibitor, single point]",–
CC(C)c1noc(-c2cn(C3CCCN(C(=O)c4ccc(C(C)(C)C)cc4)C3)nn2)n1 (centres undefined),–,"inconclusive [inhibitor, single point]",–
CC(C)c1nc(-c2ccc(OC3CCN(S(=O)(=O)Cc4ccccc4)C3)cc2)no1 (centres undefined),inactive: -8.9%,–,–
C=CCc1ccc(O[C@@H]2O[C@H](CO)[C@@H](O)[C@H](O)[C@H]2O)c(O[C@@H]2O[C@H](CO)[C@@H](O)[C@H](O)[C@H]2O)c1,–,"inconclusive [inhibitor, single point]",–
COc1ccc(CC(=O)N2CC(c3nnc(-c4ccncc4)o3)C3(CCOCC3)C2)cc1 (centres undefined),–,"inconclusive [inhibitor, single point]",–
FC(F)(F)c1ccc(Nc2nc(-c3c(C(F)(F)F)nc4ccccn34)cs2)cc1,–,"inconclusive [inhibitor, single point]",–

Compound,"activity change, negative = inhibition",Potency,outcome
CNCCC=C1c2ccccc2CCc2ccccc21,–,"inconclusive [inhibitor, partial curve, poor fit]",–
Cn1c(C(=O)N2CCN(c3ccccn3)CC2)cc2c1CCN(Cc1ccccc1)C2,–,"inconclusive [inhibitor, partial curve]",–
COc1cncc(N2CC3(COCC(=O)N(Cc4ccccc4)C3)C2)c1,–,"inconclusive [inhibitor, full curve, poor fit]",–
CC1=C[C@@H](CC#N)[C@H](C(C)C)C[C@H]1CC(=O)N1CCN(c2ncccn2)CC1,inactive: -16.2% [at 88.5 µM],–,–
CC(=O)NCC(=O)N1Cc2ccccc2CC2(CCN(Cc3ccc(O)cc3)C2)C1 (centres undefined),inactive: 2.99%,–,–
CC(C)OCCCNC(=O)c1cc(C2CC2)nc2onc(C3CCNCC3)c12,–,"inconclusive [inhibitor, single point]",–
COc1ncccc1-c1nc(-c2c(C)noc2C)cc2c1cc(-c1ccccc1)n2C,inactive: -6.14% [at 88.5 µM],–,–
COc1cccc(-c2noc(Nc3cc(OC)c(OC)c(OC)c3)n2)c1,–,"inconclusive [inhibitor, partial curve, poor fit]",–
COc1ccc(F)cc1-c1cccc(C(=O)NCCNC(=O)c2ccc(Cl)cc2)c1,inactive: 2.02%,–,–
CC(C)NC(=O)C[C@@H]1C[C@H]2O[C@H](CNCc3cnccc3C(F)(F)F)[C@@H](O)[C@H]2O1,–,"inconclusive [inhibitor, partial curve, poor fit]",–
CC1(C)CC[C@]2(C(=O)OC3OC(CO)C(O)C(O)C3O)CC[C@]3(C)C(=CCC4[C@@]5(C)C[C@@H](O)[C@H](OC6OC(C(=O)O)C(O)C(O)C6O)C(C)(C)C5CC[C@]43C)[C@@H]2C1 (some centres undefined),–,"inconclusive [inhibitor, full curve, poor fit]",–
COc1cccc(S(=O)(=O)N2C[C@@H](C)[C@](O)(C3CCC3)C2)c1,–,"inconclusive [inhibitor, single point]",–
O=C(/C=C/c1ccccc1)OC[C@H]1O[C@@H](OC(=O)c2cc(O)c(O)c(O)c2)[C@H](O)[C@@H](O)[C@@H]1O,–,"inconclusive [inhibitor, single point]",–
CNC(=O)[C@H]1C[C@H](Oc2ccccc2)CN1C(=O)CCc1c[nH]c2ccccc12,–,"inconclusive [inhibitor, single point]",–
C=C(C)C(=O)O[C@H]1CC2=CC(C/C(C)=C\[C@H]3OC(=O)C(=C)[C@H]13)OC2=O (some centres undefined),–,"inconclusive [inhibitor, single point]",–
CSc1ccc(NC(=O)c2ccc3c(c2)N(C)C2CCCN2C3=O)cc1 (centres undefined),–,–,inactive
COc1ccc(-c2cc(N3CCCC(NC(=O)c4ccc(OC)c(OC)c4)C3)n[nH]2)cc1 (centres undefined),–,"inconclusive [inhibitor, single point]",–
C=CCNC(=O)c1cccc2c(C)nnn12,–,"inconclusive [inhibitor, single point]",–
O=C(c1ccc(C(F)(F)F)cc1)N1CCCC(C(=O)N2CCC(c3nc4ccncc4[nH]3)C2)C1 (centres undefined),–,"inconclusive [inhibitor, single point]",–
